The values below come from the supplement of paper PMC9446081.

Each structure is given as a SMILES string. In all, about 39,000 compounds went through this assay and about 220 (0.56%) showed activity. The list shows a part of the results.
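Further: static incubation at 37 °C against the wild-type strain, values averaged over two biological replicates.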

The subject of this experiment is Escherichia coli K-12 BW25113. The experiment in a line: relative growth (OD600 normalised to plate interquartile mean) (fraction); higher = less growth inhibition, active = 0.2 or less. Conditions: 50 µM; LB; incubation time: overnight (16-24 h).
Turning to `COc1ccc([C@@H]2CC(=O)c3c(O)cc(O[C@@H]4O[C@H](CO)[C@@H](O)[C@H](O)[C@H]4O[C@@H]4O[C@@H](C)[C@H](O)[C@@H](O)[C@H]4O)cc3O2)cc1O`, the relative growth is inactive: 1.

With `C[C@@H]1CN([C@H](C)CO)C(=O)c2cc(NS(=O)(=O)c3ccccc3)ccc2O[C@@H](C)CCCCO[C@@H]1CN(C)C(=O)CCC(F)(F)F`, the relative growth is inactive: 0.989.

Consider `C[C@@H]1CN([C@H](C)CO)C(=O)c2cc(C#CCc3ccccc3)cnc2O[C@H]1CN(C)C(=O)C1CCOCC1`, for which the relative growth was inactive: 1.

On to `C[C@@H]1CN([C@@H](C)CO)C(=O)c2cc(C#Cc3cccc(F)c3)cnc2O[C@@H]1CN(C)Cc1ccccn1`, for which the relative growth is inactive: 1.01.

`Cc1cc(C(=O)Nc2cccc3c2O[C@@H](CN(C)S(=O)(=O)c2ccc(Cl)cc2)[C@H](C)CN([C@@H](C)CO)C3=O)n(C)n1`: the relative growth is inactive: 0.998.

Consider `CC(C)NC(=O)N(C)C[C@@H]1Oc2ccc(NS(=O)(=O)c3ccccc3)cc2C(=O)N([C@@H](C)CO)C[C@H]1C`, for which the relative growth was inactive: 0.984.

With `C[C@@H]1CN([C@@H](C)CO)C(=O)Cc2cc(NC(=O)CCN3CCOCC3)ccc2O[C@@H]1CN(C)C(=O)Nc1ccccc1`, the relative growth is inactive: 1.02.

`C[C@H]1CN([C@@H](C)CO)S(=O)(=O)c2ccc(C#Cc3ccncc3)cc2O[C@H]1CN(C)S(=O)(=O)c1ccccc1`: the relative growth was inactive: 1.03.

In the case of `Cc1noc(C)c1NC(=O)N(C)C[C@@H]1Oc2ccc(NC(=O)C3CC3)cc2CC(=O)N([C@@H](C)CO)C[C@@H]1C`, the relative growth is inactive: 1.

Take `CC1=CC=CC2=NC(=O)C[C@](C)(C(=O)O)N12`: the relative growth is inactive: 0.972.

Turning to `COc1ccc(S(=O)(=O)N(C)C[C@@H]2Oc3c(NC(=O)Nc4cccc5ccccc45)cccc3C(=O)N([C@@H](C)CO)C[C@H]2C)cc1OC`, the relative growth was inactive: 1.02.

On to `CCC12CCCN3CCc4c(n(c5ccccc45)C(O)(C(=O)OC)C1)C32` (stereo not drawn), for which the relative growth is inactive: 1.14.

`COc1ccc(S(=O)(=O)Nc2ccc3c(c2)C(=O)N([C@@H](C)CO)C[C@H](C)[C@H](CN(C)S(=O)(=O)c2ccc(Cl)cc2)OCCCC[C@@H](C)O3)cc1`: the relative growth is inactive: 1.02.

`C[C@@H]1CN([C@@H](C)CO)C(=O)Cc2cc(NC(=O)C3CC3)ccc2O[C@@H]1CN(C)S(=O)(=O)c1ccccc1`: the relative growth was inactive: 1.01.

Take `COCC(=O)Nc1ccc2c(c1)C(=O)N(C)C[C@H](OC)[C@@H](C)CN(C(=O)Cc1ccccn1)[C@@H](C)CO2`: the relative growth was inactive: 0.971.

Turning to `COc1ccc(S(=O)(=O)N(C)C[C@H]2Oc3c(NS(=O)(=O)c4ccc(C)cc4)cccc3C(=O)N([C@H](C)CO)C[C@H]2C)cc1`, the relative growth was inactive: 1.02.

As to `COc1ccc(NC(=O)Nc2ccc3c(c2)C(=O)N([C@H](C)CO)C[C@@H](C)[C@H](CN(C)S(=O)(=O)c2ccccc2)OCCCC[C@H](C)O3)cc1`, the relative growth is inactive: 1.05.

Take `Cc1ccc(S(=O)(=O)N(C)C[C@@H]2OCCCC[C@@H](C)Oc3ccc(NC(=O)C4CCCCC4)cc3C(=O)N([C@@H](C)CO)C[C@@H]2C)cc1`: the relative growth is inactive: 1.02.

For the compound `O=C1CCC(C(=O)O)N1` (stereo not drawn), the relative growth is inactive: 0.958.

In the case of `C[C@H]1CN([C@@H](C)CO)C(=O)c2cc(NS(=O)(=O)c3ccc(F)cc3)ccc2O[C@@H]1CN(C)C(=O)Nc1ccc(C(F)(F)F)cc1`, the relative growth is inactive: 1.02.

Take `C#CC1(O)CCC2C3CCc4cc(OC5CCCC5)ccc4C3CCC21C` (stereo not drawn): the relative growth is inactive: 1.02.

With `C[C@H]1CCCCO[C@H](CN(C)C(=O)Nc2ccc(F)cc2)[C@@H](C)CN([C@@H](C)CO)C(=O)c2cc(NC(=O)Nc3ccccc3)ccc2O1`, the relative growth is inactive: 1.03.

On to `COC1C=COC2(C)Oc3c(C)c(O)c4c(O)c(c(C=NN5CCN(C)CC5)c(O)c4c3C2=O)NC(=O)C(C)=CC=CC(C)C(O)C(C)C(O)C(C)C(OC(C)=O)C1C` (stereo not drawn), for which the relative growth was active: 0.0777.

Take `CCCNC(=O)N[C@@H]1C=C[C@@H](CC(=O)N2CCN(C)CC2)O[C@H]1CO`: the relative growth is inactive: 1.01.

Take `COc1ccc2c3c([nH]c2c1)[C@H](CO)N(Cc1ccc(cc1)Cl)C[C@]13CCN(CC1)Cc1nccs1`: the relative growth was inactive: 0.995.

Regarding `CCOC(=O)[C@H]1CCCCN1`, the relative growth is inactive: 1.

With `C[C@@H]1CN([C@@H](C)CO)C(=O)c2cccc(NC(=O)c3ccncc3)c2O[C@H]1CN(C)S(=O)(=O)c1ccccc1`, the relative growth is inactive: 1.

Take `CC(/C=C/C(=O)NO)=C\c1cccc(OC[C@@H]2[C@H]3C[C@H]4c5[nH]c6ccccc6c5CCN4C[C@@H]3CC[C@@H]2O)c1`: the relative growth was inactive: 0.96.

Consider `C[C@H](CO)N1C[C@H](C)[C@@H](CN(C)Cc2ccc(C(F)(F)F)cc2)Oc2ccc(NS(=O)(=O)c3ccc(Cl)cc3)cc2CC1=O`, for which the relative growth was inactive: 1.

As for `C[C@H](CO)N1C[C@H](C)[C@@H](CN(C)C(=O)C2CC2)OCc2cnnn2CCCC1=O`, the relative growth is inactive: 0.989.

In the case of `CC(C)NC(=O)Nc1ccc2c(c1)CC(=O)N([C@H](C)CO)C[C@H](C)[C@H](CN(C)C(=O)NC1CCCCC1)O2`, the relative growth was inactive: 1.02.

With `O=C([C@@H]1N[C@@H]2c3ccc(-c4ccc(F)cc4)c(=O)n3C[C@@H]2[C@H]1CO)N1CCOCC1`, the relative growth was inactive: 0.989.

With `C[C@H]1CN([C@@H](C)CO)C(=O)c2cc(NC(=O)CCCN(C)C)ccc2O[C@@H]1CN(C)Cc1ccc(Oc2ccccc2)cc1`, the relative growth is inactive: 0.982.

With `C[C@H]1CN([C@@H](C)CO)C(=O)c2cc(NS(=O)(=O)c3cn(C)cn3)ccc2O[C@H]1CN(C)S(=O)(=O)c1ccc(F)cc1`, the relative growth is inactive: 0.995.

On to `C[C@H]1CN([C@@H](C)CO)C(=O)c2cccc(NC(=O)Nc3ccc(C(F)(F)F)cc3)c2O[C@H]1CN(C)S(=O)(=O)c1ccc(Cl)cc1`, for which the relative growth was inactive: 0.869.

For the compound `O=C(C[C@@H]1CC[C@@H]2[C@H](COC[C@@H](O)CN2C(=O)Nc2ccc(C(F)(F)F)cc2)O1)NCc1ccncn1`, the relative growth is inactive: 1.02.

For the compound `C[C@H]1CN([C@@H](C)CO)C(=O)c2cccc(NC(=O)Nc3cccc4ccccc34)c2O[C@H]1CN(C)C(=O)Nc1ccc(C(F)(F)F)cc1`, the relative growth is inactive: 0.978.

On to `COC(=O)c1cnn2c(=O)cc(C)[nH]c12`, for which the relative growth was inactive: 1.01.
